# Test results published in ChEMBL document CHEMBL4888484, “Replenishing the malaria drug discovery pipeline: Screening and hit evaluation of the MMV Hit Generation Library 1 (HGL1) against asexual blood stage Plasmodium falciparum ,using a nano luciferase reporter read-out” (2022).
# Hit rate of the full screen: of about 150,000 compounds, about 540 (0.36%) showed an effect of 50% or more. This is one part of the list.
# Test system: Plasmodium falciparum
# Experiment: Primary screen in NF54 nanoGlo assay, in single point, at 2uM, 72h; a lower Z score goes with more inhibition
# Format: functional, Erythrocyte
# Details: timepoint 72 hour
SMILES,% Inhibition,Z score
C#CCN(Cc1nnc(C(=O)Nc2ccc(CC)cc2)s1)[C@H]1CCc2ccccc21,-10%,1.51
O=C(Nc1ccc(-c2ncco2)cc1)N[C@H]1CCCC[C@@H]1O,28%,-3.21
COc1ccc(S(=O)(=O)N2CCOCC2)cc1NC(=O)CN1CCCC1,4%,-0.74
N#Cc1cccc(NC(=O)CN2N=C(c3ccccc3)c3ccccc3S2(=O)=O)c1,-14%,1.32
Cc1ccc(NC(=O)CCc2c(C)nn(-c3ccccc3C)c2Oc2cccc(C)c2)cc1,-4%,0.51
CC1(C)OCC[C@@H]1NS(=O)(=O)c1ccc2c(c1)OCCO2,-16%,1.38
CCCn1ncc(CN2CCO[C@H](C(N)=O)C2)c1C,-16%,1.49
CCn1c([C@](O)(c2ccccc2)c2ccc(C)cc2)nc2ccccc21,-5%,0.61
CCCN(CC1CC1)C(=O)Nc1cccc2ccccc12,6%,-1.09
CN(c1ncnc2ccc(Cl)cc12)C1CCCC1O (stereo unspecified),-9%,1.11
C[C@@H](C1CCN(C(=O)Cc2ccc(O)c(F)c2)CC1)N1CCCC1,-16%,1.88
CC(C)NC(=O)N1CCC2(CC1)C[C@@H](Cc1cccc(F)c1)CCO2,-1%,0.08
CC1CCN(C(=O)c2cnn(C3CCCNC3)c2)c2c(O)cccc21 (stereo unspecified),-3%,0.36
Cc1ccc(S(=O)(=O)N2C[C@@H]3OCC(=O)N(Cc4ccc(F)cc4)[C@@H]3C2)cc1,-8%,1.28
Cn1ccc2cc(CCC(=O)N3CCCC3)ccc21,-10%,1.6
Cc1cc(Cl)cc2c(N3CCOC[C@@H](CN(C)C)C3)ccnc12,-7%,1
Cc1ncsc1C(=O)Nc1cccc2nccn12,-8%,1.24
COc1cccc(C(=O)N2CC[C@@H]3CN(S(C)(=O)=O)[C@@H]3C2)c1C,-8%,1.06
COC1CCCC1C1COCCN1CCN1CCCS1(=O)=O (stereo unspecified),-12%,2.16
CC(=O)NCC(=O)N(c1ccc(C)cc1)C1(C(=O)Nc2ccccc2C)CCCCC1,9%,-1.46
c1cncc(CCNc2ncnc3sccc23)c1,-1%,0.16
CC(C)(C)c1cc(CN2CCc3[nH]cnc3[C@@H]2c2ccsc2)n[nH]1,-11%,1.45
CC(C)c1nccc(N[C@H]2CCC[C@@H]2N(C)C)n1,-6%,0.79
